One protein from paper PMC13189620, “Twelve phosphomimetic mutations induce the assembly of recombinant full-length human tau into paired helical filaments” (eLife, 2026) can be followed below.

This data set deals with the molecule itself. Put plainly: cryo-EM structure; in vitro assembly, 50 µM, 100 mM potassium phosphate, 4 mM TCEP, 500 rpm, 3.17 days.

B1: tau[…] Δ392–395 (domain or fragment)
chain: not shown
notes: source: E. coli BL21-CodonPlus (DE3)-RIPL, purified (cation exchange, ammonium sulphate precipitation, SEC)
Consider B1, for which the binding result was “binds”.
